Whole data set: some 33,000 sequences, median “E-score (-0.5 to 0.5)” near -0.012, cut for the highest 2% near 0.29. The list shows a part of the results.
biological target: T1, Ybr033w (UniProt P38073); test: PBM E-score (8-mer binding enrichment) (E-score (-0.5 to 0.5)); higher = stronger / more preferred TF binding; most listed sequences are background and not binding sites; conditions: protein concentration: 200 nM; construct: GST-full length
T1 sequence: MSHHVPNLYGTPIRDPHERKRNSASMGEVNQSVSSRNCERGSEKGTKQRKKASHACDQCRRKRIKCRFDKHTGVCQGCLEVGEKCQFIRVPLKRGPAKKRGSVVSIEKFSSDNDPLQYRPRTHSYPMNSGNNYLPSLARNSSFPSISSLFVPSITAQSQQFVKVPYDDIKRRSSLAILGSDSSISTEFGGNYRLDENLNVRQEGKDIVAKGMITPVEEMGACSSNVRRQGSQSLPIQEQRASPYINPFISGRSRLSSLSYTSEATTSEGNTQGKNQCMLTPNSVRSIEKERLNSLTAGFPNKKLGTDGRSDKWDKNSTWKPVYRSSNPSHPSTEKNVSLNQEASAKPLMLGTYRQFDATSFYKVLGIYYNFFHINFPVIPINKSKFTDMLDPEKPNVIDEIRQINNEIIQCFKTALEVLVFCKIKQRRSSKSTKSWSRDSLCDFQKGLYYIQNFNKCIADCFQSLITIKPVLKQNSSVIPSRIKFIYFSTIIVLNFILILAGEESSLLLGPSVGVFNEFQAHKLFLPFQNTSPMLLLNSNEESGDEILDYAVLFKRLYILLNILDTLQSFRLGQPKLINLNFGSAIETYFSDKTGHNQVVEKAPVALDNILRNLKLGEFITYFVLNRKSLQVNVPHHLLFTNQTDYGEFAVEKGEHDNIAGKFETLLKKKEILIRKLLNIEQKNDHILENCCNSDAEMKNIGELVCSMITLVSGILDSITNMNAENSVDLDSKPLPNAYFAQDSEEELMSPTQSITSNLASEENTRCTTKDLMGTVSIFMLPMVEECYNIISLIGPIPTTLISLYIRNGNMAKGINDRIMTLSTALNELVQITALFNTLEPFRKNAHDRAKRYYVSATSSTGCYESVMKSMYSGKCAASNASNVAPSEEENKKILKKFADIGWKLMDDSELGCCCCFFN
Outline: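 Masliner-normalised scans of fluorescent anti-GST signal were the basis for scoring. That signal came from GST-tagged yeast transcription factors applied at about 100-200 nM to double-stranded universal all-10-mer Agilent arrays on fresh or once-stripped slides. Each ungapped eight-base word, pooled with its reverse complement, received an E-score from the Universal PBM Analysis Suite.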

Compared with TGCGACAA, ACCCGAAC is lower in “PBM E-score” value: -0.0037 for the first, -0.0773 for the second.

First: AGGAAGGG
Second: AAAAAAAA
The “PBM E-score” value of the first is lower: -0.119 for the first, 0.353 for the second.

Compared with ACTGTAGC, AATCTTGG is higher in “PBM E-score” value: -0.0826 for the first, 0.128 for the second.

Compared with CGGCCGTA, CTCTAGCA is higher in “PBM E-score” value: -0.214 for the first, -0.0957 for the second.

First: CCGCCAGG
Second: CAGTGAGC
The “PBM E-score” value of the first is lower: -0.402 for the first, -0.177 for the second.

First: TCCTCCCA
Second: CACCCACA
The “PBM E-score” value of the first is higher: -0.165 for the first, -0.189 for the second.

Going from CCACGGGA to GATTATCC, the “PBM E-score” value rises from -0.186 to 0.396.

First: TAGACCCA
Second: AGGTACAC
The “PBM E-score” value of the first is higher: -0.0171 for the first, -0.143 for the second.

First: GCTCTCTA
Second: ATGCGATG
The “PBM E-score” value of the first is lower: -0.146 for the first, -0.0777 for the second.

Compared with GCGTAAAA, ACGAGATG is lower in “PBM E-score” value: 0.276 for the first, -0.0859 for the second.

First: CGTTGAAA
Second: CTTTTAGC
The “PBM E-score” value of the first is lower: -0.0339 for the first, 0.0655 for the second.

First: TCACCAAA
Second: CCACTGAA
The “PBM E-score” value of the first is higher: 0.208 for the first, 0.0758 for the second.

First: AGCCGACC
Second: CATTAGCC
The “PBM E-score” value of the first is lower: -0.261 for the first, -0.0697 for the second.

Compared with GCGAGCAA, CTCTAAAC is higher in “PBM E-score” value: 0.0139 for the first, 0.0439 for the second.

Going from AACTCTAA to GGATGATA, the “PBM E-score” value falls from 0.241 to 0.124.

Compared with CTGGCCAG, AGCACAAG is higher in “PBM E-score” value: -0.382 for the first, -0.0143 for the second.

Compared with ACGCTCAA, CGCGCCCG is lower in “PBM E-score” value: 0.0741 for the first, -0.259 for the second.

Going from CGCCGCAC to CGACTGTC, the “PBM E-score” value rises from -0.233 to -0.17.

Going from AAGCCTGT to CGCAAATC, the “PBM E-score” value falls from 0.00849 to -0.0144.

Going from CTGCCACA to GTTACCTA, the “PBM E-score” value rises from -0.146 to 0.00439.

Compared with CAGGCTAA, CGAAAACA is higher in “PBM E-score” value: -0.0897 for the first, -0.0127 for the second.

First: AGATCCGA
Second: CGAGAGCA
The “PBM E-score” value of the first is lower: -0.0352 for the first, -0.0204 for the second.

First: ATTTCCGC
Second: CTTGAAAA
The “PBM E-score” value of the first is lower: 0.15 for the first, 0.207 for the second.

Going from AACCGGTC to AGACCGGA, the “PBM E-score” value falls from -0.164 to -0.175.

Going from ATCCCCTA to AATTTCCC, the “PBM E-score” value rises from -0.106 to 0.226.

Compared with TAAATTGA, ATCCCGAA is lower in “PBM E-score” value: 0.265 for the first, 0.0959 for the second.

First: AGAGCATG
Second: AATGTTCT
The “PBM E-score” value of the first is lower: -0.191 for the first, 0.16 for the second.

Compared with CTACTAAG, GTAGTCTA is higher in “PBM E-score” value: 0.0778 for the first, 0.107 for the second.

Compared with CGGTACTA, TGCATACA is higher in “PBM E-score” value: -0.0881 for the first, 0.133 for the second.

First: AGCGCGTA
Second: GCGGACGA
The “PBM E-score” value of the first is higher: 0.0918 for the first, -0.166 for the second.

First: ACCTGAAG
Second: AAATAGGT
The “PBM E-score” value of the first is lower: -0.0699 for the first, 0.147 for the second.

Going from AGTAAACT to CGGCAGAG, the “PBM E-score” value falls from 0.185 to -0.338.

Going from AAGTCATG to ACACATTC, the “PBM E-score” value rises from -0.0623 to 0.0739.

Going from AAATGAGA to CACTGAGA, the “PBM E-score” value falls from 0.00643 to -0.112.

Compared with AGAGGGAA, CCGCAACC is higher in “PBM E-score” value: -0.181 for the first, -0.0709 for the second.

Going from AATCGTTG to CAGGTCAG, the “PBM E-score” value falls from 0.126 to -0.0403.

Going from GCAGGTCA to AACCGGGT, the “PBM E-score” value rises from -0.277 to 0.0127.

Going from ACACAGAA to GGAAACGA, the “PBM E-score” value falls from 0.0754 to -0.0233.

Going from AAGCAGCC to AGAATTAA, the “PBM E-score” value rises from -0.143 to 0.209.

First: TCCGCCGA
Second: AACCGGTT
The “PBM E-score” value of the first is higher: -0.0526 for the first, -0.176 for the second.

Going from AATGCCAT to CTAACGTA, the “PBM E-score” value rises from -0.0186 to 0.0957.

Compared with GGTATCTA, GTAATTAA is higher in “PBM E-score” value: 0.0279 for the first, 0.105 for the second.

Compared with AGAGTGAC, TCATATGA is higher in “PBM E-score” value: -0.147 for the first, 0.2 for the second.

Reference: the supplement of paper PMC3334620
